The other results are listed elsewhere or left out.
What follows are sequences tested on T1, Caupolican (Caup) homeodomain DNA-binding domain (assay: PBM E-score (8-mer, recovered from the published 9-mer minima) (E-score (dimensionless, -0.5 to 0.5)); Drosophila protein; higher = stronger relative binding preference, active = 0.31 or more).
T1 sequence: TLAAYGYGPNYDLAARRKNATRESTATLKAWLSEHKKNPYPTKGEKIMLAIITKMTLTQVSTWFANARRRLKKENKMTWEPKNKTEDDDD
Summary of the method: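 An enrichment score, with higher meaning stronger, expresses relative binding preference for each short DNA word. The protein used was Caup's homeodomain DNA-binding domain (residues 214-303), produced by in vitro transcription and translation and tested at 100 nM on custom-designed protein binding microarrays. The 8-mer values were recovered from published 9-mer scores, each equal to the lower of its two constituent 8-mer scores.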

| Sequence | PBM E-score |
| --- | --- |
| GTTTGCGA | inactive: 0.148 |
| ATGCGTAC | inactive: 0.154 |
| TCACAAGA | inactive: 0.131 |
| GCAGTGCC | inactive: -0.267 |
| ATATGTCA | inactive: 0.305 |
| CAAGGTGA | inactive: 0.0664 |
| ATAACCGA | inactive: -0.00209 |
| TGGAACCA | inactive: 0.0106 |
| CGGCAGAA | inactive: -0.215 |
| GGTCACGA | inactive: 0.0132 |
| ACGAACCA | ≥ 0.0454 |
| CCATTTGC | inactive: -0.0285 |
| GCATCTGA | inactive: -0.0536 |
| CAGCGAGG | inactive: -0.199 |
| AAACGATT | inactive: 0.0852 |
| CAAGTAAG | inactive: 0.0621 |
| GCCTATAC | inactive: -0.0758 |
| AGATTCCT | inactive: -0.0236 |
| GAGCGCTA | inactive: -0.152 |
| AGTGACAT | active: 0.354 |
| GCCAGGAA | inactive: -0.0742 |
| CAAAGCTC | inactive: -0.162 |
| CCAAACAG | inactive: 0.0978 |
| GAGTAGAC | inactive: 0.0351 |

| Sequence | PBM E-score |
| --- | --- |
| AACGTAGG | inactive: -0.119 |
| AACACGTA | active: 0.316 |
| GACCGTCC | inactive: -0.258 |
| CCATAGAC | inactive: -0.0106 |
| GTTATCCA | inactive: 0.0936 |
| CCAGTTAA | inactive: 0.0936 |
| AATTCATA | inactive: 0.0488 |
| ACCGAGAA | inactive: -0.027 |
| CTCCTAAC | inactive: 0.0612 |
| CTGTTTAC | inactive: 0.17 |
| ACTCTGCC | inactive: -0.111 |
| AAAAGACA | inactive: 0.184 |
| ACGCACTG | inactive: -0.0886 |
| GAAGCATA | inactive: 0.0668 |
| GCTATTTA | inactive: 0.187 |
| ATGACGGA | inactive: 0.0204 |
| ACAGCAGG | inactive: 0.0384 |
| CATGGAAA | inactive: 0.148 |
| AATCATCA | inactive: 0.161 |
| CCCATTAA | inactive: 0.0805 |
| CCACGCGG | inactive: -0.268 |
| GAGTGGGA | inactive: -0.0746 |
| ATAGCGCA | inactive: -0.0213 |
| CGTGTATA | active: 0.321 |

| Sequence | PBM E-score |
| --- | --- |
| TACGATCA | inactive: 0.0958 |
| GCGCAAGA | inactive: -0.0905 |
| ACAATCAT | inactive: 0.204 |
| ATGTCTTG | inactive: 0.237 |
| AAGCGAAG | inactive: -0.104 |
| AGTGAATG | inactive: 0.0689 |
| CTCTGAGA | inactive: -0.109 |
| GACTCTTA | inactive: 0.0374 |
| CCCTGAAC | inactive: 0.132 |
| GAGCTAGA | inactive: -0.156 |
| AACAAAAG | inactive: 0.122 |
| CATCCAGC | inactive: -0.0387 |
| CCATGGCC | inactive: -0.247 |
| AGGCGTCC | inactive: -0.139 |
| GGCGGAAC | inactive: -0.1 |
| AGACCTAT | inactive: 0.0768 |
| CCTATTGA | inactive: 0.0195 |
| AAGGCCAA | inactive: -0.213 |
| AACATCAT | inactive: 0.292 |
| AAGCCCAT | inactive: -0.0824 |
| CTGCCTTC | inactive: -0.202 |
| GCTCACCC | inactive: -0.215 |
| CTTACTAA | inactive: 0.135 |

From the supplement of paper PMC3724861
